Hit rate of the full screen: of about 310,000 compounds, about 14,000 (4.5%) showed an effect of 50% or more. The effect is printed as a negative number. This is one part of the list.
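Note: peak tail current of the secondary pulse compared with the same well before compound.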

This assay deals with human ether-à-go-go-related gene (hERG) potassium channel (human, UniProt Q12809). The experiment in a line: primary screen, population patch clamp on CHO cells stably expressing hERG.
Chain of human ether-à-go-go-related gene (hERG) potassium channel (Q12809 whole entry, looked up): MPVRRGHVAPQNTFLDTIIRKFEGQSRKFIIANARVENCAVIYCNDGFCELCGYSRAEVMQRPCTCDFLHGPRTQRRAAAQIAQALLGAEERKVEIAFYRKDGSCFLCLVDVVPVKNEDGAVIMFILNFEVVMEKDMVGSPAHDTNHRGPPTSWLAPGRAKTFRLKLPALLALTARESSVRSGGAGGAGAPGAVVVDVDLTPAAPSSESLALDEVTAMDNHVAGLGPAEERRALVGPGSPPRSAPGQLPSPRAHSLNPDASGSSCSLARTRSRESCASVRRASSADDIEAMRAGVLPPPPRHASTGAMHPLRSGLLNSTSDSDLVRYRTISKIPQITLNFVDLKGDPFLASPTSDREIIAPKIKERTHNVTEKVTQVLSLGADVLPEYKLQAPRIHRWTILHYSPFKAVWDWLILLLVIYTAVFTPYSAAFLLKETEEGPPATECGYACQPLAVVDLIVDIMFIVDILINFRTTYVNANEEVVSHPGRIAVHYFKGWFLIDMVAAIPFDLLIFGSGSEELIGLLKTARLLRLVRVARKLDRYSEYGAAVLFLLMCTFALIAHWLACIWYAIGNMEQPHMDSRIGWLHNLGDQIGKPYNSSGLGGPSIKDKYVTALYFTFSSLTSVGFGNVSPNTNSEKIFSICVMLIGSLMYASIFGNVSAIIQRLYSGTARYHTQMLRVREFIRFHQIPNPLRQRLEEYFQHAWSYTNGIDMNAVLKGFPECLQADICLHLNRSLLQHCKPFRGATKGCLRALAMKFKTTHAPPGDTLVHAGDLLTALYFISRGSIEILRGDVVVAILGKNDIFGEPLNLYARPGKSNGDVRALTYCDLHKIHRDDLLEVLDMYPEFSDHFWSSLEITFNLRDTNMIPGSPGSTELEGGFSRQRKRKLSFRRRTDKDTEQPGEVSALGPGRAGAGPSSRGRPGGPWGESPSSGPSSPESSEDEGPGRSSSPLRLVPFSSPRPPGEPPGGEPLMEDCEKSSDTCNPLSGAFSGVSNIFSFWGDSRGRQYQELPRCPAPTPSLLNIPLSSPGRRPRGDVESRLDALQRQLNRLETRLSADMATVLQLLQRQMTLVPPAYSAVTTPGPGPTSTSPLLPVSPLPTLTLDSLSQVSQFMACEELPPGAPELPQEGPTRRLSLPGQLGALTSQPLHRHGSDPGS
As to `Nc1nc(CSC(=S)N2CCN(c3ccccc3)CC2)nc(Nc2ccccc2)n1`, the “hERG current change (%, negative = inhibition) at 10uM” value amounted to 0.151%.
Take `COc1ccc(CCn2c(=O)[nH]c3cc(C(=O)NCCN4CCOCC4)ccc3c2=O)cc1OC`: the “hERG current change (%, negative = inhibition) at 10uM” value was 0.353%.
Consider `Oc1ccc(N=Nc2n[nH]c(-c3ccc(Cl)cc3)n2)cc1`, for which the “hERG current change (%, negative = inhibition) at 10uM” value turned out to be 6.49%.
As to `COc1ccc(C2C=C(c3ccccc3)Nc3nc(NC(C)=O)nn32)cc1` (centres unmarked), the “hERG current change (%, negative = inhibition) at 10uM” value is listed as -22.9%.
Consider `COc1cc(/C=C/C(=O)OCC(=O)Nc2cc(C(F)(F)F)ccc2N2CCOCC2)ccc1O`, for which the “hERG current change (%, negative = inhibition) at 10uM” value is listed as -0.592%.
Consider `Cc1cc(S(=O)(=O)NC2CCCCC2)ccc1-n1cnnn1`, for which the “hERG current change (%, negative = inhibition) at 10uM” value came out at 23.2%.
Take `COc1ccc(C(=O)N/C(=C\c2cn(C)c3ccccc23)C(=O)N2CCOCC2)cc1`: the “hERG current change (%, negative = inhibition) at 10uM” value is -10.9%.
Regarding `O=C(NNS(=O)(=O)c1ccc(Cl)cc1Cl)c1cc2ncc(C(F)(F)F)cc2s1`, the “hERG current change (%, negative = inhibition) at 10uM” value is on record as 15.7%.
For `CN(CC1CCCN(CCc2ccc(Cl)cc2)C1)C(=O)c1ccc2nc[nH]c2c1` (centres unmarked), the “hERG current change (%, negative = inhibition) at 10uM” value is on record as -34.1%.
As for `O=C(CN(c1ccccn1)S(=O)(=O)c1ccccc1)Nc1ccccc1`, the figure is 5.51%; as for `O=C(CNC(=O)c1ccc(Oc2ccccc2)cc1)OCc1ccc(Br)cc1`, -0.714%.
Take `CCCc1cc(Nc2ccccc2OCC)n2ncnc2n1`: the “hERG current change (%, negative = inhibition) at 10uM” value is listed as -21.9%.
As to `O=C(Cn1ccc([N+](=O)[O-])n1)NCC1CCCO1` (centres unmarked), the “hERG current change (%, negative = inhibition) at 10uM” value came to 17.9%.
On to `NC(=O)[C@H](Cc1cc2ccccc2s1)NC(=O)[C@@H]1CC2(CC(c3cccc(NC(=O)[C@@H]4CCC(=O)N4)c3)=NO2)CN1C(=O)/C=C/Sc1ccccc1` (some centres unmarked), for which the “hERG current change (%, negative = inhibition) at 10uM” value came out at 14.1%.
`COc1ccc(Nc2nnc(SCc3cc(=O)n4ccsc4n3)s2)cc1`: the “hERG current change (%, negative = inhibition) at 10uM” value is given as -68.9%.
In the case of `Cn1cc(CC(=O)NC2CCCCC2)c2ccccc21`, the “hERG current change (%, negative = inhibition) at 10uM” value was determined as 21.3%.
Regarding `Cn1c(=O)[nH]c(=O)c2c1nc(N/N=C/c1ccncc1)n2Cc1ccc(F)cc1`, the “hERG current change (%, negative = inhibition) at 10uM” value turned out to be 9.38%.
For the compound `OCCN1CNC(=S)NC1`, the “hERG current change (%, negative = inhibition) at 10uM” value is 7.7%.
Take `COc1ccc(Cl)cc1NC(=O)c1cnccn1`: the “hERG current change (%, negative = inhibition) at 10uM” value worked out at 8.97%.
Turning to `COc1ccc2c(c1)[nH]c1c(=O)n(CCc3cnc[nH]3)cnc12`, the “hERG current change (%, negative = inhibition) at 10uM” value is on record as -0.954%.
Regarding `Nc1cccc2c1C(=O)N(CC(=O)NC13CC4CC(CC(C4)C1)C3)C2=O`, the “hERG current change (%, negative = inhibition) at 10uM” value was found to be 9.95%.
As for `Cc1ccc(Nc2ncccc2C(=O)NCc2cccs2)c(C)c1`, the figure is 3.88%; as for `CCN(c1cccc(C)c1)S(=O)(=O)c1ccc2c(c1)NC(=O)CCS2`, 8.09%.
For the compound `Cc1ccc(-n2nc(C(=O)O)c3ccccc3c2=O)cc1C`, the “hERG current change (%, negative = inhibition) at 10uM” value is on record as -1.39%.
For the compound `CC(=O)N1CCc2c(sc(NC(=O)CCS(=O)(=O)c3ccc(C)cc3)c2C#N)C1`, the “hERG current change (%, negative = inhibition) at 10uM” value is reported as -21.3%.
For the compound `COc1ccccc1N(C(=O)c1snc(C(N)=O)c1N)C(C(=O)NC1CCCC1)c1ccc2ncccc2c1` (centres unmarked), the “hERG current change (%, negative = inhibition) at 10uM” value was -12.9%.
As to `Cc1cc2c(SCC(=O)NC3CCCCC3)ncnc2s1`, the “hERG current change (%, negative = inhibition) at 10uM” value was -2.81%.
In the case of `CCCCOC(=O)Oc1ccc2c(=O)c(Oc3cccc(C)c3)coc2c1`, the “hERG current change (%, negative = inhibition) at 10uM” value stood at 1.21%.
Consider `COc1ccc(C(=O)NNC(=O)C(Cc2ccc(O)cc2)NC(=O)c2ccccc2NC(=O)c2ccc(OC)cc2)cc1` (centres unmarked), for which the “hERG current change (%, negative = inhibition) at 10uM” value was determined as 7.96%.
Take `Fc1ccc(CSc2ccc3nnc(-c4cccs4)n3n2)cc1`: the “hERG current change (%, negative = inhibition) at 10uM” value stood at 17.1%.
Consider `O=C(Cn1ncc2c1-c1ccccc1OC2)N(Cc1ccco1)C1CCCCC1`, for which the “hERG current change (%, negative = inhibition) at 10uM” value is listed as -20%.
Take `Cc1ccc(OCC(=O)Nc2oc(-c3ccccc3)c(-c3ccccc3)c2C#N)cc1`: the “hERG current change (%, negative = inhibition) at 10uM” value was found to be 17.7%.
With `CC1CN=C(Nc2cccc(S(=O)(=O)N(C)C)c2)S1` (centres unmarked), the “hERG current change (%, negative = inhibition) at 10uM” value came to 19.7%.
In the case of `CNC(=O)/C(C#N)=C/c1cn(CC(=O)OC)c2ccccc12`, the “hERG current change (%, negative = inhibition) at 10uM” value was -16.2%.
As to `CCOC(=O)c1cc(C(C)(C)C)n(CCCN2CCOCC2)c1C`, the “hERG current change (%, negative = inhibition) at 10uM” value was found to be 2.53%.
As for `CCC1(c2ccc(F)cc2)NC(=O)N(CC(=O)Nc2cccnc2Cl)C1=O` (centres unmarked), the “hERG current change (%, negative = inhibition) at 10uM” value is reported as -7.47%.
As for `O=C1CC(N(CCc2ccccc2)C(=S)Nc2ccccc2)C(=O)N1c1ccc(F)cc1` (centres unmarked), the figure is 18.2%; as for `CCCC(=O)N(c1ccc(OCC)cc1)S(=O)(=O)c1ccc2c3c(cccc13)C(=O)N2C`, 3.23%.
As for `CC(Oc1ccccc1)C(=O)N1CCC2(CC1)Oc1ccc(Cl)cc1C(=O)C21CC(c2ccccc2)=NO1` (centres unmarked), the “hERG current change (%, negative = inhibition) at 10uM” value is 7.46%.
`CC1(C)CC(=O)N(c2ccc(Cl)cc2Cl)C(=O)C1`: the “hERG current change (%, negative = inhibition) at 10uM” value is listed as 12.9%.
Turning to `O=[N+]([O-])c1cccc2c(Cl)ccnc12`, the “hERG current change (%, negative = inhibition) at 10uM” value is reported as -0.808%.
As for `COCCNC(=O)CCCCCN1C(=O)CCC1=O`, the “hERG current change (%, negative = inhibition) at 10uM” value is on record as 10.7%.
As to `COc1cccc(-n2c(SCC(=O)NC(C)(C)C)nnc2-c2ccoc2C)c1`, the “hERG current change (%, negative = inhibition) at 10uM” value is recorded as -64.5%.
For `COCc1nnc(N)s1`, the “hERG current change (%, negative = inhibition) at 10uM” value was determined as 0.247%.
Turning to `O=c1[nH]c2ccccc2nc1NCCN1CCOCC1`, the “hERG current change (%, negative = inhibition) at 10uM” value was -12.7%.
Take `CC1CC1C(=O)OCC(=O)NCc1ccccc1Cl` (centres unmarked): the “hERG current change (%, negative = inhibition) at 10uM” value is 1.69%.
The figure for `C(=N/N1CCN(c2ccccc2)CC1)/c1cccs1` is -3.63%.
As for `CCN(CCO)c1ncnc2c1sc1nc(C(C)C)c3c(c12)CC(C)(C)OC3`, the figure is -3.74%; as for `COc1ccc(CNC(=O)c2nn(-c3ccccc3)cc2OC)cc1`, -5.22%.
Turning to `COc1ccccc1-c1ccc(C(=O)O)o1`, the “hERG current change (%, negative = inhibition) at 10uM” value is 7.06%.
With `Cc1ccc(N(C(=O)c2ccco2)C2C=CS(=O)(=O)C2)cc1` (centres unmarked), the “hERG current change (%, negative = inhibition) at 10uM” value is -6%.
Consider `CS(=O)(=O)N(CC(=O)NCCSC1CCCCC1)c1ccc2c(c1)OCO2`, for which the “hERG current change (%, negative = inhibition) at 10uM” value is on record as -11.8%.
As to `O=C1OCCC1Sc1nnc(-c2ccc(O)cc2)o1` (centres unmarked), the “hERG current change (%, negative = inhibition) at 10uM” value was determined as 10.2%.
The figure for `CSc1ccccc1OCc1cc(C(=O)NCc2ccc(C)s2)no1` is 6.76%; for `CCN(CC(=O)NCc1ccco1)S(=O)(=O)c1ccc(F)cc1` it is 5.61%.
Turning to `Nc1nc2n(n1)C1(CCCCC1)C1=C(CCCC1)N2`, the “hERG current change (%, negative = inhibition) at 10uM” value is -9.89%.

These data come from article PMC4336329 (PLoS ONE, 2015).
